# Data taken from PMC4336329 (PLoS ONE, 2015).
# Screen size: about 310,000 compounds; about 2,200 (0.71%) showed an effect of 50% or more. The effect is printed as a negative number. This is one part of the list.
# Target: human ether-à-go-go-related gene (hERG) potassium channel (human, UniProt Q12809)
# Experiment: primary screen, population patch clamp on CHO cells stably expressing hERG
# Chain of human ether-à-go-go-related gene (hERG) potassium channel (Q12809 whole entry, looked up): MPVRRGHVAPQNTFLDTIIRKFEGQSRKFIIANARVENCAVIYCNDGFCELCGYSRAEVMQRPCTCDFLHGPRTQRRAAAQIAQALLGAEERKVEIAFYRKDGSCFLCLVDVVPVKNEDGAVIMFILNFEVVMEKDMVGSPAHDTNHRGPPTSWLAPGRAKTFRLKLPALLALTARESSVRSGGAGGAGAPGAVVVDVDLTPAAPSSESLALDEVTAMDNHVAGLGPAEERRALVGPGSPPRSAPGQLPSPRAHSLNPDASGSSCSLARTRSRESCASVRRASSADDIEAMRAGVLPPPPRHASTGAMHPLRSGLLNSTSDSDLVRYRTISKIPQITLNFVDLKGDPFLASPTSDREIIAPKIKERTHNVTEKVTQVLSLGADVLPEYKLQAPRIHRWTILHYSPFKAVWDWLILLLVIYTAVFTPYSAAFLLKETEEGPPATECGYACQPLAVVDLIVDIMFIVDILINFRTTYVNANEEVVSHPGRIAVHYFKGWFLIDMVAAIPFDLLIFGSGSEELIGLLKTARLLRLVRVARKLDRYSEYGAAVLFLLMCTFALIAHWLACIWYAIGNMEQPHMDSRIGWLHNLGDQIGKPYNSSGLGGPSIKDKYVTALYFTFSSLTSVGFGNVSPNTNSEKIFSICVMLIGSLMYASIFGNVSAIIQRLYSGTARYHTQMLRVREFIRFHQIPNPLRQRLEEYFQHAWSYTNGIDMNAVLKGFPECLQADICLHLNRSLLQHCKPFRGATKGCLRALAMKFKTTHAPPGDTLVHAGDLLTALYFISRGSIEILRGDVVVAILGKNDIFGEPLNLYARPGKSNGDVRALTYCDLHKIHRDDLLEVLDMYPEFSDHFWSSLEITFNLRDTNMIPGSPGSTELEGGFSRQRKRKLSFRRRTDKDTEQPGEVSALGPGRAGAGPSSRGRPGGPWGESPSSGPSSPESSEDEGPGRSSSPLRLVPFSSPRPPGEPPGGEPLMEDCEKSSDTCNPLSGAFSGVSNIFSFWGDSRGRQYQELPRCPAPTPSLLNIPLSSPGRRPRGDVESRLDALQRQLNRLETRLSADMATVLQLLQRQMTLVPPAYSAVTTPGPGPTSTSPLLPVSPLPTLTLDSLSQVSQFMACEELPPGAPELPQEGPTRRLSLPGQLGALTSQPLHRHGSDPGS
row,SMILES,"hERG current change (%, negative = inhibition) at 1uM"
1,COc1cccc(/C=C(/C#N)c2ccc(F)cc2)c1OCc1cccc(C(=O)O)c1,17.3%
2,CCCS(=O)(=O)N1CCCC(c2nc(-c3cccc(OC)c3)no2)C1 (centres unmarked),-0.844%
3,COc1cccc(C2C3=C(Nc4[nH]n(-c5ccccc5)c(=O)c42)c2ccccc2C3=O)c1 (centres unmarked),21.2%
4,CC1(c2cccc(Br)c2)NC(=O)N(CC(=O)Nc2ccc(S(N)(=O)=O)cc2)C1=O (centres unmarked),17.9%
5,COC(=O)c1sc2ccccc2c1-n1cccc1C(=O)C(=O)Nc1ccc(OC)cc1,-2.06%
6,CC(=O)NC1C(OCc2ccccc2)OC2COC(C)(C)OC2C1O (centres unmarked),10.2%
7,Cc1nn(Cc2ccc(C(=O)N/N=C/c3ccncc3)o2)c(C)c1Cl,-20.3%
8,CCC(=O)N1CCN(c2nc3ccccc3s2)CC1,-2.76%
9,COc1ccc(C(C#N)N2CCC(c3ccccc3)=N2)cc1OC (centres unmarked),2.21%
10,CC(C)C(=O)NC(c1ccco1)c1ccc2cccnc2c1O (centres unmarked),7.53%
11,CCOC(=O)c1cnc(-n2nc(C)cc2C)nc1NNc1nc(C)cc(C)n1,12.8%
12,CCOC(=O)C1(C(=O)O)NC(=O)CC1c1ccccc1 (centres unmarked),1.37%
13,CN1CCN(Cc2ccc(OCc3ccccc3)cc2)CC1,-2.71%
14,COc1cc(CCCN2C(N)=NC[C@@H]2Cc2ccc(O)cc2)cc(OC)c1OC,17.3%
15,O=C(NC1=NCCS1)C12CC3CC(C1)CC(C(=O)NC1=NCCS1)(C3)C2,20.6%
16,Cc1nn2c(=O)c(NC(=O)c3ccc(F)cc3)cnc2s1,14.9%
17,CC(=O)C(C)Oc1ncn(-c2ccccc2)n1 (centres unmarked),7.61%
18,Cc1cccc(C(=O)Nc2ccc(N3CCN(c4ccc(C(F)(F)F)cn4)CC3)nc2)c1,12.9%
19,O=C(Nc1ccon1)Nc1cc(Cl)ccc1Cl,3.97%
20,Clc1ccc(-c2nnc(-c3ccc(Br)o3)o2)c(Cl)c1,7.1%
21,Cc1cc(C)c(NC(=O)CNC(=O)c2cc(C3CC3)nn2-c2ccccc2)c(C)c1,3.93%
22,COc1ccc(NC(=O)N2CCCC(c3nc(-c4ccc(F)cc4)no3)C2)cc1 (centres unmarked),6.57%

row,SMILES,"hERG current change (%, negative = inhibition) at 1uM"
1,O=[N+]([O-])c1cc([N+](=O)[O-])c2nonc2c1Nc1ccc(O)cc1,2.03%
2,COc1ccccc1C(=O)COC(=O)c1ccc(-n2cnnn2)cc1,11.9%
3,C/C(=N/NC(=O)CNC(=O)CCc1ccccc1)c1ccc(Cl)cc1,3.37%
4,COCCN(C(=O)Cc1cccs1)c1nnc(-c2cccnc2)s1,7.1%
5,Nc1nc(SCC(=O)c2cc3ccccc3o2)n[nH]1,-0.91%
6,O=C(CCc1ccccc1)NNC(=O)c1ccc(Br)cc1,11%
7,Cc1ccc(CSCCNC(=O)CN(c2cc(C)ccc2C)S(C)(=O)=O)cc1,-12.4%
8,CCCOc1ccc(NC(=O)CNC(=O)c2cc(OC)cc(OC)c2)cc1OCCC,10.4%
9,O=C1c2ccccc2C(Nc2ccc(Cl)cn2)N1Cc1ccccc1 (centres unmarked),13.2%
10,CCOC(=O)C1(CCOc2ccccc2)CCN(Cc2cccc3c2OCO3)CC1,-7.1%
11,COc1ccc(/C=N\NC(=O)c2ccccc2Br)cc1COc1ccccc1,2.17%
12,c1ccc(-n2ncc3c(N4CCN(CCOc5cccc6ccccc56)CC4)ncnc32)cc1,13.4%
13,CCOc1cc(-c2nc(-c3cc(OC)c(OC)c(OC)c3)no2)cc(OCC)c1OCC,18.5%
14,O=C(COC(=O)Cc1cccs1)Nc1ccccc1Cl,13.9%
15,Cc1ccc(-c2nc(-c3ccccn3)no2)cc1[N+](=O)[O-],13.8%
16,COc1ccc(C(=O)NNC(=S)NC(=O)C(C)(C)C)cc1,11.5%
17,N#Cc1nc(-c2ccccc2)oc1N1CCC(C(N)=O)CC1,16.8%
18,Cc1ccc2nc(-c3ccc(NC(=S)NCCC(C)C)cc3)sc2c1,6.84%
19,COc1ccc(Cc2nnc(N/N=C/c3ccccc3O)[nH]c2=O)cc1OC,-0.0106%
20,COc1ccc(S(=O)(=O)N2CCN(C(=O)NCc3ccc(C)cc3)CC2)cc1,14.9%
21,O=C(O)C1CC(=O)N(CCc2ccccc2)C1 (centres unmarked),11%
22,O=C(CN1CCC(NC(=O)c2ccccc2F)CC1)Nc1ccc2c(c1)OCO2,1.39%

row,SMILES,"hERG current change (%, negative = inhibition) at 1uM"
1,O=C(Nc1ccc(F)cc1F)N1CCCN(c2ccc(C(F)(F)F)cn2)CC1,0.582%
2,Cn1c(=O)c2cc(S(=O)(=O)NC(Cc3ccccc3)C(=O)NCc3ccco3)ccc2n(C)c1=O (centres unmarked),-8.41%
3,CC1CC(C)CN(c2cc(=O)n(Cc3ccc(F)cc3)c(=O)[nH]2)C1 (centres unmarked),17.9%
4,CCN(Cc1ccccc1)S(=O)(=O)c1ccc(C(=O)N(CCCN(C)C)c2nc3c(C)c(C)ccc3s2)cc1.Cl,-1.23%
5,COc1cc(C2=NOC(C(=O)Nc3cccnc3)C2)cc(OC)c1OC (centres unmarked),11.3%
6,COc1ccc(CCNC(=O)C2CCCN2C(=O)Nc2ccccc2)cc1OC (centres unmarked),13.9%
7,Cn1cnnc1SCCn1c(N2CCCCC2)nc2c1c(=O)[nH]c(=O)n2C,0.157%
8,Cc1ccc(-c2nnc(N3CCN(c4ccccn4)CC3)c3ccccc23)cc1,11.1%
9,CN(Cc1nccn1C)C(=O)CCc1nnc(CCC2CCCCC2)o1,-3.81%
10,CCn1cc(SCC(=O)NCc2ccc3c(c2)OCO3)c2ccccc21,13.5%
11,CCOC(=O)NC(=O)CSc1nc(C)cc(C(F)(F)F)c1C#N,2.33%
12,O=C1N[C@H](Cc2ccccc2)C(=O)N2[C@@H]3[C@H](C[C@@H]12)c1ccccc1N3OOSc1ccccc1,6.05%
13,O=C1CNC(=S)N1Cc1ccccc1,28.9%
14,Cc1ccc(NC(=O)C2CCN(C(=O)c3cccs3)CC2)c(C)c1,13.6%
15,CC1CCC(NC(=O)C(NC(=O)c2ccccc2)C(C)C)CC1 (centres unmarked),6.61%
16,O=C(N/N=C/c1ccc(N2CCOCC2)s1)c1ccc(NS(=O)(=O)c2cccs2)cc1,6.28%
17,CCCN(CC1CC1)C(=O)CCc1nnc(C(OC)c2ccccc2)o1 (centres unmarked),10%
18,Cc1nc2ccc(C(=O)N(C)CC3CCCN(CCc4ccc(Cl)cc4)C3)cc2[nH]1 (centres unmarked),-0.55%
19,O=C(c1cc2c(F)cccc2s1)N1CCCC1,13%
20,Cc1cc(F)c(F)c(C(=O)N2CCOCC2)c1,5.97%
21,Cc1ccc(-n2ncc3c(=O)n(CC(=O)N4CCCCCC4)cnc32)cc1,10.9%
22,CCCc1cc(=O)[nH]c(SCC(=O)Nc2ccc(Cl)c(S(=O)(=O)N3CCOCC3)c2)n1,10.8%

row,SMILES,"hERG current change (%, negative = inhibition) at 1uM"
1,Cc1cc(F)ccc1S(=O)(=O)N1CCCOC1CNC(=O)C(=O)NCCC1=CCCCC1 (centres unmarked),11.3%
2,CCC(CO)Nc1ncc([N+](=O)[O-])cc1C#N (centres unmarked),12.7%
3,O=C(NCc1ccccc1)c1ccc(CS(=O)(=O)c2ccccc2)o1,13.6%
4,COc1cc(NC(=O)c2cc(-c3ccccc3Cl)on2)cc(OC)c1OC,-2.27%
5,O=C(Cn1nnc(-c2ccccc2)n1)N/N=C/c1cc([N+](=O)[O-])ccc1O,9.92%
6,COc1ccc(C(=O)Oc2ccc(N(C)S(=O)(=O)c3ccccc3)cc2)cc1[N+](=O)[O-],11%
7,Cc1ccccc1-n1c(O)c(/C=C2/C(c3ccccc3)=Nc3ccccc32)c(=O)[nH]c1=O,-4.59%
8,ClCC1NCC(c2ccccc2Cl)c2c1[nH]c1ccccc21 (centres unmarked),11.7%
9,COCCN(C(=O)Cc1cccs1)C(C(=O)NCc1ccc(OC)cc1)c1ccc(OC)cc1 (centres unmarked),8.44%
10,O=C(c1cc(Cl)nc2ccccc12)N1CCN(Cc2ccc3c(c2)OCO3)CC1,0.571%
11,O=C(Nc1cccc2cccnc12)C1CCCC1,-5.58%
12,O=C1C(NS(=O)(=O)c2cccs2)=C(N2CCN(c3ccccc3)CC2)C(=O)c2ccccc21,13.3%
13,NC(=O)c1c(NC(=O)c2cccc(N3C(=O)CCC3=O)c2)sc2c1CCCCC2,14.2%
14,COc1ccc(Oc2nccc(-c3ccccc3)c2C#N)cc1,-2.36%
15,Cc1c(NC(=O)c2cc(-c3ccc(O)cc3)on2)c(=O)n(-c2ccccc2)n1C,7.15%
16,COc1ccccc1CN1C(=O)CNC1=S,10.1%
17,CN1CCN(c2ccc([N+](=O)[O-])cc2C(=O)c2ccc(Br)cc2)CC1,-36.8%
18,Cc1ccc(N2CCN(/N=C/C(Cl)=C/c3ccccc3)CC2)cc1,4.95%
19,Cc1ccc(OCCC(=O)Nc2ccc(F)c(Cl)c2)cc1,6.79%
20,Cc1c(Cl)cccc1NC(=O)CNC(=O)C1CCN(C(=O)Nc2ccccc2)CC1,11.1%
